Reference: the supplement of paper PMC4166925
± gives the standard deviation of the averaged measurements. The full ranking holds about 33,000 sequences; the median of “E-score (dimensionless, -0.5 to 0.5)” is about -0.049, and the highest 2% start at about 0.37. Some of the results follow.

Tested on: T1, PmTbr T-box DNA-binding domain (GST fusion)
T1 sequence: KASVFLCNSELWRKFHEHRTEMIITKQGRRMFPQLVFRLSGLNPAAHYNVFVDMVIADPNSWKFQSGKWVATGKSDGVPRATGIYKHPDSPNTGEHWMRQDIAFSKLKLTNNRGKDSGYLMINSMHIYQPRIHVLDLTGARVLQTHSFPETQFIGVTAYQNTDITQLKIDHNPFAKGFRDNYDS
Experiment: PBM E-score of 8-mer (E-score (dimensionless, -0.5 to 0.5)); Tbr is Tbrain of the sea star Patiria miniata (Pm) or the sea urchin Strongylocentrotus purpuratus (Sp); higher = stronger binding preference; most listed sequences are background and not binding sites
Conditions: the construct has about 5 more residues each side
Method in brief: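 Universal Agilent oligonucleotide arrays, made double-stranded by primer extension, were incubated with 200 nM GST-fused Tbr T-box DNA-binding domain in PBS (pH 7.5). The protein was expressed in BL21 E. coli at 20 °C and purified by glutathione affinity chromatography. After scanning and quantification, the Universal PBM Analysis Suite assigned an enrichment E-score to each ungapped 8-mer, averaged over duplicate arrays.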

Row | Sequence | PBM E-score of 8-mer
1 | GATATAGA | -0.4 ± 0.014
2 | AGGGCGCC | 0.0863 ± 0.013
3 | CTCATCAA | -0.0963 ± 0.0034
4 | ATGATCTA | -0.256 ± 0.043
5 | CGATAGCA | 0.211 ± 0.016
6 | CGACCCCA | 0.0119 ± 0.012
7 | CTCAACCA | -0.14 ± 0.014
8 | ACGGTTGG | 0.0218 ± 0.01
9 | ACTAGGCT | -0.0822 ± 0.0071
10 | CACGCACC | 0.281 ± 0.035
11 | ACCAGTAC | -0.152 ± 0.068
12 | AGGCTAGA | -0.144 ± 0.04
13 | CTGTCTGC | -0.0547 ± 0.12
14 | CCTTCTAG | -0.17 ± 0.038
15 | ACTCTCGA | 0.0126 ± 0.0063
16 | AGCTAGGG | -0.0348 ± 0.0053
17 | CAGCCCAC | -0.148 ± 0.034
18 | GCGGGGCC | -0.183 ± 0.017
19 | ACAGTCCG | -0.0728 ± 0.0024
20 | CGTATTAA | -0.182 ± 0.053
21 | ACCCTATG | 0.103 ± 0.024
22 | ACTAAGTC | -0.15 ± 0.015
23 | CCCGGCCC | -0.0935 ± 0.0013
24 | TATAAAGA | -0.19 ± 0.016

Row | Sequence | PBM E-score of 8-mer
25 | ACTATCGC | 0.24 ± 0.015
26 | AAAGCTGT | 0.199 ± 0.051
27 | GCCAATAA | -0.101 ± 0.046
28 | CTTCTTAC | -0.0227 ± 0.035
29 | AATGAACG | -0.108 ± 0.021
30 | AATACGAG | -0.144 ± 0.014
31 | AACCATCC | -0.268 ± 0.02
32 | AACCTACC | -0.0696 ± 0.071
33 | CAGGCTCC | -0.2 ± 0.033
34 | AACAAAAT | -0.126 ± 0.08
35 | AGGAGGAC | -0.396 ± 0.055
36 | CCGCTCTA | 0.0173 ± 0.017
37 | CTGGGGGA | -0.184 ± 0.011
38 | CAATGGGG | -0.167 ± 0.036
39 | CGAACACC | 0.3416 ± 0.0028
40 | CATAGTTC | -0.0987 ± 0.098
41 | GCATGGCC | -0.173 ± 0.1
42 | GCCTTCCC | -0.248 ± 0.073
43 | TCGTACGA | 0.163 ± 0.015
44 | AACCACGG | 0.044 ± 0.11
45 | ATATAATC | 0.0369 ± 0.11
46 | ATTGGGCC | -0.167 ± 0.011
47 | CCCAGCGG | -0.0719 ± 0.007
48 | CGGCATTA | -0.201 ± 0.049

Row | Sequence | PBM E-score of 8-mer
49 | CGCATTAA | -0.123 ± 0.058
50 | AACCTTGG | -0.183 ± 0.041
51 | CCTCCTGC | 0.0635 ± 0.0095
52 | CTGGACAA | 0.0428 ± 0.043
53 | CAACCCAG | -0.168 ± 0.015
54 | ACCACCGA | -0.102 ± 0.017
55 | CGACAAAA | 0.2703 ± 0.00057
56 | GGTTTTGA | -0.061 ± 0.055
57 | GGTTCAGA | 0.0331 ± 0.047
58 | AGTGCGAT | 0.427 ± 0.0052
59 | TCTGCCCA | 0.0729 ± 0.1
60 | CCGATACC | -0.0575 ± 0.018
61 | TCCAGAGA | -0.0321 ± 0.029
62 | TCAATAAA | -0.035 ± 0.048
63 | AGAGGACC | -0.212 ± 0.012
64 | CTTTTGGA | -0.0115 ± 0.037
65 | CCCTCACA | 0.174 ± 0.058
66 | ACCATCTC | -0.0247 ± 0.023
67 | ATTCAGGA | -0.176 ± 0.0068
68 | CCATATGA | -0.252 ± 0.018
69 | ATAGAGGC | -0.0323 ± 0.029
70 | AAAGAACT | -0.235 ± 0.0052
71 | GCATGGTA | -0.0838 ± 0.006
72 | CTTCACGA | 0.0848 ± 0.025

Row | Sequence | PBM E-score of 8-mer
73 | AGTATCGC | 0.217 ± 0.0038
74 | GTATCGAA | 0.106 ± 0.012
75 | CTTTTCGA | -0.125 ± 0.047
76 | TATTCGCA | 0.357 ± 0.022
77 | CGAACAAA | -0.0147 ± 0.032
78 | CCCACCGC | 0.11 ± 0.051
79 | GACCTCAA | -0.0689 ± 0.019
80 | CAGCGAAG | 0.222 ± 0.0074
81 | ATCTCCTG | -0.14 ± 0.0054
82 | GCGGCGCC | 0.161 ± 0.034
83 | ATTGTTCG | -0.0265 ± 0.029
84 | GCACGCCA | 0.0289 ± 0.062
85 | CAACCGAG | 0.0284 ± 0.0078
86 | GCTCGAAA | -0.0748 ± 0.028
87 | TCTCTAAA | -0.135 ± 0.028
88 | TGGACACA | -0.0183 ± 0.022
89 | GCAGGGTA | -0.0138 ± 0.034
90 | ATGAGGTG | 0.382 ± 0.018
91 | AATCCCTG | -0.189 ± 0.024
92 | ATCGCTCG | -0.0889 ± 0.075
93 | ACGATAAC | 0.0614 ± 0.045
94 | ACTACACT | 0.0796 ± 0.029
